Experimental data: patent US20200062840A1 (KINDRED BIOSCIENCES, published 2020)
Results are given in words; binding and its absence hold for the method and conditions named. Some binding calls cover weakened binding; strength is not graded here. Where a sequence is shown, tags or fusion partners need not be part of it.

What was measured:
[1] = molecular target: T1, GST_IL31.P12-E21.I19A (#79.1, #79.7); assay: immunoblot of GST-IL31 epitope fragment fusions with alanine mutations, probed with caninized M14; anti-GST bands in all lanes of the bottom panel
T1 sequence (GST fusion protein): PSDVRKIALE

[2] = molecular target: T2, GST_IL31.P12-E21.L20A (#77.3, #77.5); assay: as above
T2 sequence (GST fusion protein): PSDVRKIIAE

[3] = molecular target: T3, pGEX_GST-IL31. P12-E21*(clone 24-7); assay: as above
T3 sequence (GST fusion protein): PSDVRKIILE

[4] = molecular target: T1, GST_IL31.P12-E21.I19A (#79.1, #79.7); assay: immunoblot of GST-IL31 epitope fragment fusions with alanine mutations, probed with hybridoma M14; anti-GST signal in all lanes of the bottom panel
[5] = molecular target: T2, GST_IL31.P12-E21.L20A (#77.3, #77.5); assay: as above
[6] = molecular target: T3, pGEX_GST-IL31. P12-E21*(clone 24-7); assay: as above
[7] = molecular target: T4, GST canine IL31 fragment fusion carrying the minimal fragment (SEQ ID NO: 23) (canine); assay: immunoblot of GST canine IL31 fragment fusions probed with chimeric M14
T4 sequence: PSDVRKIILELQPLSRG

GST-IL31(P34-K58*).E43A = molecular target: T5, GST-IL31(P34-K58*).E43A; assay: immunoblot of GST-canine IL31 fusion from E. coli, membrane probed with chimeric M14; anti-GST band in FIG 6B lane 5
T5 sequence (GST fusion protein): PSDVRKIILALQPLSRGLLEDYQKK

GST-IL31(P34-K58*) = molecular target: T6, GST-IL31(P34-K58*); assay: immunoblot of GST-canine IL31 fusion from E. coli, membrane probed with chimeric M14; anti-GST band in FIG 6B lane 4
T6 sequence (GST fusion protein): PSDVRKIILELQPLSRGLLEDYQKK

GST_(S98-S144) = molecular target: T7, GST_(S98-S144); assay: immunoblot of GST-canine IL31 fusion from E. coli, membrane probed with chimeric M14
T7 sequence (GST fusion protein): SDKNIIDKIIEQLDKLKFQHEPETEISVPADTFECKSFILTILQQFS

GST_(A127-Q159) = molecular target: T8, GST_(A127-Q159); assay: as above
T8 sequence (GST fusion protein): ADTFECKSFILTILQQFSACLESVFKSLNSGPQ

B1: caninized M14 IgG-B (antibody, V domains shown)
VH: EVQLVESGPSLVKPGGSLRLTCSVTGDSITSGYWNWIRKFPGNKLEYMGYISYSGITDYNPSLKSRITISRDTSKNQYYLQLNSVTTEDTATYYCARYGNYGYAMDYWGQGTLVTVSS
VL: DIVMTQSPASLSVSLGQRATISCRASESVDTYGNSFMHWYQQKPGQSPKLLIYRASNLESGIPARFGGSGSGTDFTLTIDPVQADDVATYYCQQSYEDPWTFGGGTKLEIKR
notes: canine IgG-B heavy chain and canine light chain constant region; also called caninized M14 antibody
Question: With B1 as the binder, how does the binding [1] read?
Answer: Its binding is “binds”.

Question: And the binding [2]?
Answer: Its binding is “binds”.

Question: And the binding [3]?
Answer: Its binding is “binds”.

B2: mouse monoclonal antibody M14 (antibody, V domains shown)
VH: EVQLQESGPSLVKPSQTLSLTCSVTGDSITSGYWNWIRKFPGNKLEYMGYISYSGITDYNPSLKSRISITRDTSKNQYYLQLNSVTTEDTATYYCARYGNYGYAMDYWGQGTSVTVSS
VL: DIVLTQSPASLAVSLGQRATISCRASESVDTYGNSFMHWYQQKSGQSPKLLIYRASNLESGIPARFGGSGSRTDFTLTIDPVEADDVATYYCQQSYEDPWTFGGGTKLEIK
Question: What does the source list for B2?
Answer: binding [4]: binds; binding [5]: binds; binding [6]: binds

B3: chimeric M14 (murine M14 VH and VL fused to canine IgG-B constant heavy chain and canine constant light chain) (antibody, V domains shown)
VH: EVQLQESGPSLVKPSQTLSLTCSVTGDSITSGYWNWIRKFPGNKLEYMGYISYSGITDYNPSLKSRISITRDTSKNQYYLQLNSVTTEDTATYYCARYGNYGYAMDYWGQGTSVTVSS
VL: DIVLTQSPASLAVSLGQRATISCRASESVDTYGNSFMHWYQQKSGQSPKLLIYRASNLESGIPARFGGSGSRTDFTLTIDPVEADDVATYYCQQSYEDPWTFGGGTKLEIKR
Question: With B3 as the binder, how does the binding [7] read?
Answer: The binding was “binds”.

Question: And the binding (GST-IL31(P34-K58*).E43A)?
Answer: The binding was “binds”.

Question: And the binding (GST-IL31(P34-K58*))?
Answer: Its binding is “binds”.

Question: What about the binding (GST_(S98-S144)) of the same binder?
Answer: Its binding is “no binding”.

Question: What about the binding (GST_(A127-Q159)) of the same binder?
Answer: Its binding is “no binding”.
